In the supplement of paper PMC4967469:
Lines with a small IC50 respond at low doses; a limit (>, <) means that the fit lies beyond the doses tested. For AUC the same curve is integrated over the 256-fold range of doses and scaled to a fraction; it is 1 without any effect and falls as sensitivity rises. For part of these data: An inferred top dose is not printed in the source and was worked back from the curve model.

Key:
Assay in all cases: Viability of human cancer cell lines after 72 h of drug (GDSC screen)
Trametinib = compound: CC(=O)Nc1cccc(-n2c(=O)n(C3CC3)c(=O)c3c(Nc4ccc(I)cc4F)n(C)c(=O)c(C)c32)c1 [Trametinib]; settings: top dose 1 µM
Method: (§1)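 Human cancer cell lines in 384-well plates, medium with 10% serum, drug for 72 h over a 256-fold dose range (nine 2-fold or five 4-fold steps up to the top dose). Adherent lines were fixed and stained with the nucleic acid dye Syto60, suspension lines read with resazurin; signal relative to control wells, capped at 0 and 100%. One two-parameter sigmoid per drug and line, fitted in a mixed model over all curves with the slope shared within a line.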

HG-6-64-1 = compound: CCN1CCN(Cc2ccc(NC(=O)c3ccc(C)c(/C=C/c4cnc5[nH]ccc5c4OC)c3)cc2C(F)(F)F)CC1 [HG-6-64-1]; settings: top dose 5.12 µM; top dose inferred
Method: as §1

I-BET-762 = compound: CCNC(=O)C[C@@H]1N=C(c2ccc(Cl)cc2)c2cc(OC)ccc2-n2c(C)nnc21 [I-BET-762]; settings: top dose 20 µM; top dose inferred
Method: as §1

PF-4708671 = compound: CCc1cncnc1N1CCN(Cc2nc3ccc(C(F)(F)F)cc3[nH]2)CC1 [PF-4708671]; settings: top dose 10 µM; top dose inferred
Method: as §1

AV-951 = compound: COc1cc2nccc(Oc3ccc(NC(=O)Nc4cc(C)on4)c(Cl)c3)c2cc1OC [AV-951]; settings: top dose 0.128 µM; top dose inferred
Method: as §1

KIN001-244 = compound: O=C(NC(COc1ccc2[nH]c(=O)[nH]c2c1)c1ccccc1)c1cccn(Cc2ccc(F)c(F)c2)c1=O [KIN001-244]; settings: top dose 20 µM; top dose inferred
Method: as §1

| Cell Line | AUC (Trametinib) | IC50 (Trametinib) | AUC (HG-6-64-1) | IC50 (HG-6-64-1) | AUC (I-BET-762) | IC50 (I-BET-762) | AUC (PF-4708671) | IC50 (PF-4708671) | AUC (AV-951) | IC50 (AV-951) | AUC (KIN001-244) | IC50 (KIN001-244) |
| --- | --- | --- | --- | --- | --- | --- | --- | --- | --- | --- | --- | --- |
| HDQ-P1 (breast, adherent) | 0.882 | > 1 µM | 0.787 | 2.7 µM | 0.984 | > 20 µM | 0.974 | > 10 µM | 0.983 | > 0.128 µM | 0.934 | > 20 µM |
| HEC-1 (endometrium, adherent) | 0.979 | > 1 µM | 0.776 | 1.97 µM | 0.989 | > 20 µM | 0.969 | > 10 µM | 0.989 | > 0.128 µM | 0.978 | > 20 µM |
| HGC-27 (stomach, adherent) | 0.984 | > 1 µM | 0.457 | 0.249 µM | 0.847 | 11.5 µM | 0.907 | > 10 µM | 0.988 | > 0.128 µM | 0.781 | 6.99 µM |
| HLE (liver, adherent) | 0.909 | > 1 µM | 0.667 | 0.906 µM | 0.92 | > 20 µM | 0.981 | > 10 µM | 0.986 | > 0.128 µM | 0.808 | 9.63 µM |
| HN (head and neck, adherent) | 0.221 | 0.0102 µM | 0.969 | > 5.12 µM | 0.989 | > 20 µM | 0.966 | > 10 µM | 0.987 | > 0.128 µM | 0.989 | > 20 µM |
| HO-1-N-1 (head and neck, adherent) | 0.158 | 0.0063 µM | 0.878 | 4.47 µM | 0.984 | > 20 µM | 0.965 | > 10 µM | 0.989 | > 0.128 µM | 0.973 | > 20 µM |
| HO-1-u-1 (head and neck, adherent) | 0.855 | 0.745 µM | 0.854 | 3.77 µM | 0.967 | > 20 µM | 0.976 | > 10 µM | 0.983 | > 0.128 µM | 0.946 | > 20 µM |
| HOP-92 (large cell lung carcinoma, adherent) | 0.411 | 0.0342 µM | 0.699 | 1.28 µM | 0.976 | > 20 µM | 0.969 | > 10 µM | 0.981 | > 0.128 µM | 0.979 | > 20 µM |
| HOS (osteosarcoma, adherent) | 0.966 | > 1 µM | 0.66 | 0.821 µM | 0.992 | > 20 µM | 0.99 | > 10 µM | 0.991 | > 0.128 µM | 0.99 | > 20 µM |
| HPAF-II (pancreas, adherent) | 0.185 | 0.00505 µM | 0.795 | 3.24 µM | 0.972 | > 20 µM | 0.932 | > 10 µM | 0.967 | > 0.128 µM | 0.82 | 16.3 µM |
| HSC-3 (head and neck, adherent) | 0.106 | 0.00434 µM | 0.666 | 0.857 µM | 0.99 | > 20 µM | 0.99 | > 10 µM | 0.99 | > 0.128 µM | 0.926 | > 20 µM |
| HSC-4 (head and neck, adherent) | 0.592 | 0.122 µM | 0.867 | > 5.12 µM | 0.978 | > 20 µM | 0.934 | > 10 µM | 0.978 | > 0.128 µM | 0.924 | > 20 µM |
| HT-115 (large intestine, adherent) | 0.869 | 0.788 µM | 0.941 | > 5.12 µM | 0.965 | > 20 µM | 0.97 | > 10 µM | 0.991 | > 0.128 µM | 0.991 | > 20 µM |
| HT-1080 (fibrosarcoma, adherent) | 0.406 | 0.0355 µM | 0.761 | 1.64 µM | 0.988 | > 20 µM | 0.91 | > 10 µM | 0.989 | > 0.128 µM | 0.905 | > 20 µM |
| HT-1197 (bladder, adherent) | 0.798 | 0.579 µM | 0.725 | 1.59 µM | 0.945 | > 20 µM | 0.935 | > 10 µM | 0.984 | > 0.128 µM | 0.945 | > 20 µM |
| HT-1376 (bladder, adherent) | 0.853 | > 1 µM | 0.733 | 1.69 µM | 0.985 | > 20 µM | 0.984 | > 10 µM | 0.985 | > 0.128 µM | 0.985 | > 20 µM |
| HTC-C3 (thyroid, adherent) | 0.151 | 0.00435 µM | 0.61 | 0.668 µM | 0.76 | 7.86 µM | 0.956 | > 10 µM | 0.984 | > 0.128 µM | 0.782 | 9.46 µM |
| HeLa (cervix, adherent) | 0.759 | 0.334 µM | 0.788 | 2.13 µM | 0.984 | > 20 µM | 0.979 | > 10 µM | 0.989 | > 0.128 µM | 0.908 | > 20 µM |
| Hep 3B2_1-7 (liver, adherent) | 0.264 | 0.0132 µM | 0.305 | 0.0908 µM | 0.934 | > 20 µM | 0.941 | > 10 µM | 0.987 | > 0.128 µM | 0.91 | > 20 µM |
| Hs633T (fibrosarcoma, adherent) | 0.105 | 0.00474 µM | 0.56 | 0.452 µM | 0.903 | 17.8 µM | 0.944 | > 10 µM | 0.991 | > 0.128 µM | 0.845 | 10.7 µM |
| Hs683 (glioma, adherent) | 0.875 | > 1 µM | 0.798 | 2.46 µM | 0.976 | > 20 µM | 0.978 | > 10 µM | 0.978 | > 0.128 µM | 0.91 | > 20 µM |
| Hs746T (stomach, adherent) | 0.639 | 0.174 µM | 0.968 | > 5.12 µM | 0.656 | 3.95 µM | 0.968 | > 10 µM | 0.942 | > 0.128 µM | 0.84 | > 20 µM |
